Biological target: T1, SIRT6 (full-length, His-tagged) (UniProt Q8N6T7)
T1 construct: SIRT6 (NAD+-dependent deacylase), full-length; 355 residues by the printed limits of the CTD (270–355); pQE80 vector; also called full-length SIRT6; wild-type SIRT6; source: E. coli BL21(DE3), purified (nickel chromatography, Heparin column)
Experiment: fluorescence polarisation; fluorescence anisotropy of 100 nM SIRT6^(Py) titrated with unlabeled SIRT6; 20 mM Tris, 150 mM KCl, 2 mM MgCl2, 0.5 mM TCEP, 1% glycerol, pH 7.5; self-oligomerization constant
Settings: both partners purified

B1: SIRT6 labeled with pyrene at cysteine 18 (enzyme)
chain: not shown
modifications: pyrene on cysteine 18
notes: SIRT6 with C320 mutated to serine so that only C18 is labelled; 60% labeling efficiency; C320S follows from 'we mutated either C18 or C320 to serine, leaving the other available'; also called SIRT6^(Py); source: E. coli BL21(DE3), purified (nickel chromatography, Heparin column), labelled with pyrene
**Q.** For B1, which Kd is on record?
**A.** The Kd was 14 µM.

— paper PMC7568541, “Multivalent interactions drive nucleosome binding and efficient chromatin deacetylation by SIRT6” (Nature Communications, 2020)
